{"source": "a collection of fitness landscapes (doi:10.1126/science.1257360)", "parents": {"B1": {"name": "PhoQ; a variant is named by its letters at X, in order, P23837 (parent)", "chain": "MKKLLRLFFPLSLRVRFLLATAAVVLVLSLAYGMVALIGYSVSFDKTTFRLLRGESNLFYTLAKWENNKLHVELPENIDKQSPTMTLIYDENGQLLWAQRDVPWLMKMIQPDWLKSNGFHEIEADVNDTSLLLSGDHSIQQQLQEVREDDDDAEMTHSVAVNVYPATSRMPKLTIVVVDTIPVELKSSYMVWSWFIYVLSANLLLVIPLLWVAAWWSLRPIEALAKEVRELEEHNRELLNPATTRELTSLVRNLNRLLKSERERYDKYRTTLTDLTHSLKTPLXXLQXXLRSLRSEKMSVSDAEPVMLEQISRISQQIGYYLHRASMRGGTLLSRELHPVAPLLDNLTSALNKVYQRKGVNISLDISPEISFVGEQNDFVEVMGNVLDNACKYCLEFVEISARQTDEHLYIVVEDDGPGIPLSKREVIFDRGQRVDTLRPGQGVGLAVAREITEQYEGKIVAGESMLGGARMEVIFGRQHSAPKDE"}}, "note": "This is one part of the list.", "data": [{"variants_of": "B1", "experiment": "enrichment ratio after two sorts for PhoP signalling (ratio (wild type AVST 3.29)); higher = more functional", "settings": "with PhoP (E. coli)", "values": [{"variant": "HAIP", "enrichment ratio": "≤ 0.25"}, {"variant": "TDMY", "enrichment ratio": 6.89}, {"variant": "TPGA", "enrichment ratio": "≤ 0.25"}, {"variant": "PSIT", "enrichment ratio": "≤ 0.25"}, {"variant": "YMSD", "enrichment ratio": "≤ 0.25"}, {"variant": "RGIM", "enrichment ratio": "≤ 0.25"}, {"variant": "EPVQ", "enrichment ratio": "≤ 0.25"}, {"variant": "ETRI", "enrichment ratio": "≤ 0.25"}, {"variant": "KPMP", "enrichment ratio": "≤ 0.25"}, {"variant": "PEVK", "enrichment ratio": "≤ 0.25"}, {"variant": "PMCS", "enrichment ratio": "≤ 0.25"}, {"variant": "PPGQ", "enrichment ratio": "≤ 0.25"}, {"variant": "WFIW", "enrichment ratio": "≤ 0.25"}, {"variant": "MSPP", "enrichment ratio": "≤ 0.25"}, {"variant": "HGSE", "enrichment ratio": "≤ 0.25"}, {"variant": "PFDN", "enrichment ratio": "≤ 0.25"}, {"variant": "PKSA", "enrichment ratio": "≤ 0.25"}, {"variant": "TTMM", "enrichment ratio": 8.23}, {"variant": "AWIP", "enrichment ratio": "≤ 0.25"}, {"variant": "LQVP", "enrichment ratio": "≤ 0.25"}, {"variant": "TVFC", "enrichment ratio": "≤ 0.25"}, {"variant": "ASAT", "enrichment ratio": 10.1}, {"variant": "LDCH", "enrichment ratio": "≤ 0.25"}, {"variant": "VELR", "enrichment ratio": "≤ 0.25"}, {"variant": "KGNC", "enrichment ratio": "≤ 0.25"}, {"variant": "ENKV", "enrichment ratio": "≤ 0.25"}, {"variant": "PMYK", "enrichment ratio": "≤ 0.25"}, {"variant": "RVQS", "enrichment ratio": "≤ 0.25"}, {"variant": "STEY", "enrichment ratio": "≤ 0.25"}, {"variant": "FRHA", "enrichment ratio": "≤ 0.25"}, {"variant": "ANKH", "enrichment ratio": "≤ 0.25"}, {"variant": "HGFC", "enrichment ratio": "≤ 0.25"}, {"variant": "GYMQ", "enrichment ratio": "≤ 0.25"}, {"variant": "LQFI", "enrichment ratio": "≤ 0.25"}, {"variant": "FHIC", "enrichment ratio": "≤ 0.25"}, {"variant": "TWRN", "enrichment ratio": "≤ 0.25"}, {"variant": "SHNC", "enrichment ratio": 0.752}, {"variant": "NVPC", "enrichment ratio": "≤ 0.25"}, {"variant": "TNEF", "enrichment ratio": "≤ 0.25"}, {"variant": "PYIV", "enrichment ratio": "≤ 0.25"}, {"variant": "APQY", "enrichment ratio": "≤ 0.25"}, {"variant": "VPFR", "enrichment ratio": "≤ 0.25"}, {"variant": "ADMP", "enrichment ratio": "≤ 0.25"}, {"variant": "WEIN", "enrichment ratio": "≤ 0.25"}, {"variant": "WDKL", "enrichment ratio": "≤ 0.25"}, {"variant": "WSCT", "enrichment ratio": "≤ 0.25"}, {"variant": "EFWH", "enrichment ratio": "≤ 0.25"}, {"variant": "DWDP", "enrichment ratio": "≤ 0.25"}, {"variant": "QFVQ", "enrichment ratio": "≤ 0.25"}, {"variant": "FWYH", "enrichment ratio": "≤ 0.25"}, {"variant": "VMGV", "enrichment ratio": "≤ 0.25"}, {"variant": "LNNH", "enrichment ratio": "≤ 0.25"}, {"variant": "FWNK", "enrichment ratio": "≤ 0.25"}, {"variant": "SFMI", "enrichment ratio": "≤ 0.25"}, {"variant": "RCYA", "enrichment ratio": "≤ 0.25"}, {"variant": "SLGC", "enrichment ratio": 0.319}, {"variant": "GIIA", "enrichment ratio": 4.87}, {"variant": "VFGM", "enrichment ratio": "≤ 0.25"}, {"variant": "HDKE", "enrichment ratio": "≤ 0.25"}, {"variant": "FRQS", "enrichment ratio": "≤ 0.25"}, {"variant": "SLMN", "enrichment ratio": 9.38}, {"variant": "TCWN", "enrichment ratio": 14.9}, {"variant": "KMSH", "enrichment ratio": "≤ 0.25"}, {"variant": "ANRI", "enrichment ratio": "≤ 0.25"}, {"variant": "LAPA", "enrichment ratio": "≤ 0.25"}, {"variant": "ISLT", "enrichment ratio": 0.863}, {"variant": "APTI", "enrichment ratio": "≤ 0.25"}, {"variant": "HYML", "enrichment ratio": "≤ 0.25"}, {"variant": "HCNR", "enrichment ratio": "≤ 0.25"}, {"variant": "IMEL", "enrichment ratio": "≤ 0.25"}, {"variant": "ANNT", "enrichment ratio": "≤ 0.25"}, {"variant": "WSDA", "enrichment ratio": "≤ 0.25"}, {"variant": "TEEA", "enrichment ratio": "≤ 0.25"}, {"variant": "DRRM", "enrichment ratio": "≤ 0.25"}, {"variant": "YGDL", "enrichment ratio": "≤ 0.25"}, {"variant": "HQCA", "enrichment ratio": "≤ 0.25"}, {"variant": "PPNK", "enrichment ratio": "≤ 0.25"}, {"variant": "VPTP", "enrichment ratio": "≤ 0.25"}, {"variant": "FKPI", "enrichment ratio": "≤ 0.25"}, {"variant": "QHDS", "enrichment ratio": 29.2}, {"variant": "QCSM", "enrichment ratio": 3.85}, {"variant": "FATF", "enrichment ratio": 0.319}, {"variant": "IVDR", "enrichment ratio": "≤ 0.25"}, {"variant": "GSMF", "enrichment ratio": 2.22}, {"variant": "HNEL", "enrichment ratio": "≤ 0.25"}, {"variant": "DKIL", "enrichment ratio": "≤ 0.25"}, {"variant": "VYYC", "enrichment ratio": "≤ 0.25"}, {"variant": "SECF", "enrichment ratio": 13.9}, {"variant": "HKWS", "enrichment ratio": "≤ 0.25"}, {"variant": "EIEW", "enrichment ratio": "≤ 0.25"}, {"variant": "LDLT", "enrichment ratio": "≤ 0.25"}, {"variant": "ILGS", "enrichment ratio": "≤ 0.25"}, {"variant": "RPWD", "enrichment ratio": "≤ 0.25"}, {"variant": "TVRR", "enrichment ratio": "≤ 0.25"}, {"variant": "TAST", "enrichment ratio": 10.8}, {"variant": "RFNT", "enrichment ratio": "≤ 0.25"}, {"variant": "ECWY", "enrichment ratio": "≤ 0.25"}, {"variant": "RNWL", "enrichment ratio": "≤ 0.25"}, {"variant": "TLRW", "enrichment ratio": "≤ 0.25"}, {"variant": "WKTE", "enrichment ratio": "≤ 0.25"}, {"variant": "WEWV", "enrichment ratio": "≤ 0.25"}, {"variant": "KAED", "enrichment ratio": "≤ 0.25"}, {"variant": "GLWW", "enrichment ratio": "≤ 0.25"}, {"variant": "NYDD", "enrichment ratio": "≤ 0.25"}, {"variant": "NDAR", "enrichment ratio": "≤ 0.25"}, {"variant": "YNFK", "enrichment ratio": "≤ 0.25"}, {"variant": "TTNQ", "enrichment ratio": 2.31}, {"variant": "MQHC", "enrichment ratio": "≤ 0.25"}, {"variant": "LPKL", "enrichment ratio": "≤ 0.25"}, {"variant": "KCFV", "enrichment ratio": "≤ 0.25"}, {"variant": "GQDC", "enrichment ratio": "≤ 0.25"}, {"variant": "MGKR", "enrichment ratio": "≤ 0.25"}, {"variant": "GAFG", "enrichment ratio": "≤ 0.25"}, {"variant": "STTQ", "enrichment ratio": 6.67}, {"variant": "MVDH", "enrichment ratio": "≤ 0.25"}, {"variant": "PECS", "enrichment ratio": "≤ 0.25"}, {"variant": "LSSI", "enrichment ratio": "≤ 0.25"}, {"variant": "AFVR", "enrichment ratio": "≤ 0.25"}, {"variant": "AWVG", "enrichment ratio": "≤ 0.25"}, {"variant": "VTPD", "enrichment ratio": "≤ 0.25"}, {"variant": "VSEQ", "enrichment ratio": "≤ 0.25"}, {"variant": "TQMP", "enrichment ratio": "≤ 0.25"}, {"variant": "NKKV", "enrichment ratio": "≤ 0.25"}, {"variant": "PEYY", "enrichment ratio": "≤ 0.25"}, {"variant": "AETT", "enrichment ratio": 3.23}, {"variant": "RVSI", "enrichment ratio": "≤ 0.25"}, {"variant": "YSDC", "enrichment ratio": "≤ 0.25"}, {"variant": "DELC", "enrichment ratio": "≤ 0.25"}, {"variant": "QSAL", "enrichment ratio": 6.48}, {"variant": "QEKV", "enrichment ratio": "≤ 0.25"}, {"variant": "LPNW", "enrichment ratio": 0.366}, {"variant": "QDKW", "enrichment ratio": "≤ 0.25"}, {"variant": "MSNI", "enrichment ratio": "≤ 0.25"}, {"variant": "TCQP", "enrichment ratio": "≤ 0.25"}, {"variant": "REYG", "enrichment ratio": "≤ 0.25"}, {"variant": "RAFA", "enrichment ratio": "≤ 0.25"}, {"variant": "LTKY", "enrichment ratio": "≤ 0.25"}, {"variant": "IPID", "enrichment ratio": "≤ 0.25"}, {"variant": "THPR", "enrichment ratio": "≤ 0.25"}, {"variant": "MYER", "enrichment ratio": "≤ 0.25"}, {"variant": "RHLV", "enrichment ratio": "≤ 0.25"}, {"variant": "EVHM", "enrichment ratio": "≤ 0.25"}, {"variant": "TSED", "enrichment ratio": "≤ 0.25"}, {"variant": "MIHH", "enrichment ratio": 5.99}, {"variant": "LYMK", "enrichment ratio": "≤ 0.25"}, {"variant": "PYWS", "enrichment ratio": "≤ 0.25"}, {"variant": "YNRF", "enrichment ratio": "≤ 0.25"}, {"variant": "SCLR", "enrichment ratio": 8.5}, {"variant": "YPYQ", "enrichment ratio": "≤ 0.25"}, {"variant": "LHYL", "enrichment ratio": "≤ 0.25"}, {"variant": "DMYW", "enrichment ratio": "≤ 0.25"}, {"variant": "SKYC", "enrichment ratio": "≤ 0.25"}, {"variant": "LMAG", "enrichment ratio": "≤ 0.25"}]}]}
